The structures appear in SMILES notation. The full ranking holds about 110,000 compounds; the median of “z-score” is about -0.1, and the highest 2% start at about 2. This is one part of the list. Calls of active or inactive are those of the source.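 How the source made its calls: active means z-score in the third read window above 3 or below -3; inactive means the rest.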

The target in the assay is Metabotropic glutamate receptor 8 (Rattus norvegicus) (UniProt P70579). In words: rat mGluR8 modulators via GIRK flux, primary screen, cell-based, thallium flux, HTS (AID 488969). Conditions: HEK293 rat mGluR8, GIRK (G protein-gated inwardly rectifying potassium channel) thallium flux, FluoZin2; at 10 µM; stronger effect = higher value; submaximal glutamate (EC20) added with thallium.
Chain of UniProt P70579 (P70579 whole entry, looked up): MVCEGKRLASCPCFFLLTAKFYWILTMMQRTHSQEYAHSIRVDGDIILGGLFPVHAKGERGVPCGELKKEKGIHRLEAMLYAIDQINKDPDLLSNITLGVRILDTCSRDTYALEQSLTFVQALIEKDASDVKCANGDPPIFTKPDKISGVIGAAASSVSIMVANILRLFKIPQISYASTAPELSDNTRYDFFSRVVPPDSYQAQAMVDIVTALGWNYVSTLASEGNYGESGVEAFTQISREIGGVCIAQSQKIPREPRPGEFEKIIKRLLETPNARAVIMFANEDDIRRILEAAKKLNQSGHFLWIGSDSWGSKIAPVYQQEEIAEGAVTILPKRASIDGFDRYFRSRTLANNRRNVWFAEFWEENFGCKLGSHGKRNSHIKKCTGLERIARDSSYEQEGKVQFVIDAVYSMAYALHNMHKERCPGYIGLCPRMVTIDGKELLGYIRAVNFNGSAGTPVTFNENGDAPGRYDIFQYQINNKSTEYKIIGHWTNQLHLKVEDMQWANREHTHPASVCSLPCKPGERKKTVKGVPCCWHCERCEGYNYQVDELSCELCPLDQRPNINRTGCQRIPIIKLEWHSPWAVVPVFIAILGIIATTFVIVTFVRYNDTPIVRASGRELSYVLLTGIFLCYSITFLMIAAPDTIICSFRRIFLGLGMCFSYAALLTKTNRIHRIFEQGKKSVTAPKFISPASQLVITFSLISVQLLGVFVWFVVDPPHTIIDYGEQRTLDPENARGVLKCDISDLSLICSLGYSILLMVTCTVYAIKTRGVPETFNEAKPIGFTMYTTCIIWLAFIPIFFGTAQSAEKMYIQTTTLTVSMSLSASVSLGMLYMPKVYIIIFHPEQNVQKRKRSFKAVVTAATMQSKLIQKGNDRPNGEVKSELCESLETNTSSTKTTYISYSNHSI
As for `Cn1c(=O)n(C)c2cc(S(=O)(=O)NCCO)ccc21`, the z-score is -0.0413.
As for `O=C(c1ccccc1)c1ccccc1C(=O)N1CCCC1`, the z-score stood at 0.333.
Regarding `O=C(NCCCc1ccccc1)c1cnc2n(c1=O)CCS2`, the z-score came to 0.994.
As for `CCOC(=O)C1C(=O)CC(C)(O)C(C(=O)OCC)C1c1ccc(C)s1` (configuration not stated), the z-score came out at 0.256.
`OCCN1CCN(CC(O)COc2ccc(Cl)cc2)CC1` (configuration not stated) had a z-score of 0.191.
Regarding `Cc1ccc(C)c(NC(=O)CCc2ccc(S(=O)(=O)NC3CCCCC3)cc2)c1`, the z-score was 0.128.
As to `Cn1c(=O)c2c(nc(N3CCN(c4ccccn4)CC3)n2Cc2ccc(Cl)cc2Cl)n(C)c1=O`, the z-score was -0.0775.
For `O=C(NC1CCS(=O)(=O)C1)C1CCCCN1S(=O)(=O)c1ccc(Cl)cc1` (configuration not stated), the z-score is 0.322.
`COc1ccc(NC(=O)N(CCN2CCCC2)Cc2cc3cc(OC)c(OC)cc3[nH]c2=O)cc1` yielded a z-score of 0.14.
Consider `O=C(Cc1c(Cl)cccc1Cl)NCCc1ccc(Cl)cc1`, for which the z-score is -0.198.
As for `Cc1cc(C)cc(NC(=O)c2ccc(Cn3nc(C)c(Cl)c3C)o2)c1`, the z-score was -0.275.
On to `CCC1(C)Cc2c(sc(NC(=S)NC(=O)c3ccccc3)c2C#N)CO1` (configuration not stated), for which the z-score worked out at 0.143.
Consider `Cc1ccc(-c2[nH]ncc2/C=C(\C#N)C(=O)NC2CCCCC2)cc1`, for which the z-score was -2.27.
`COc1ccc(/C=N/NC(=O)c2ccc(O)cc2O)cc1CSc1ccccn1`: the z-score is -0.674.
The result for `Nc1cccc(Nc2nc(OC(C(F)(F)F)C(F)(F)F)nc(OC(C(F)(F)F)C(F)(F)F)n2)c1` reads -0.288; that for `O=C(CCc1ccccc1)Nc1nc2ccc(S(=O)(=O)N3CCOCC3)cc2s1`, -0.335.
In the case of `O=C(CCc1ccc(S(=O)(=O)NCCc2ccccc2)cc1)NCc1ccc2c(c1)OCO2`, the z-score is -0.111.
The result for `Cc1ccc(C(=O)c2cc([N+](=O)[O-])ccc2N2CCN(C)CC2)cc1` reads -0.247; that for `COC(=O)CSc1cc(C(=O)c2nccn2C)c2ccccc2n1`, -0.0661.
Turning to `CC1=C(C(=O)N2CCN(C(=O)c3ccco3)CC2)C2(CCC(C)CC2)OC1=O` (configuration not stated), the z-score was -1.61.
The same measure for `Cc1cc(C)c(S(N)(=O)=O)c(C)c1-n1cnnn1`: -0.382; for `CCCn1nnnc1NC(=O)COc1ccc(Cl)cc1C`: -0.772; for `Cc1ccc(C(=O)Nc2nc(C)c(C)s2)o1`: -0.198.
Take `Cc1ccc(S(=O)(=O)CC(O)CN2CCCC2=O)cc1` (configuration not stated): the z-score was -0.0995.
As for `CCc1nnc(NC(=O)CCC(=O)NCc2ccccc2OC)s1`, the z-score was -0.0821.
The same measure for `CCOc1cc(C(=O)Nc2ccon2)cc(OCC)c1OCC`: -0.616.
For `O=C(Nc1c(C(=O)C2CC2)oc2ccccc12)c1ccc(Cl)cc1`, the z-score was -0.287.
Turning to `CCN(CC)C(=O)CSc1nnc(COc2ccccc2)n1CC`, the z-score is -0.156.
`CCc1cc2c(NCC3CCCO3)ncnc2s1` (configuration not stated): the z-score is 0.0777.
Regarding `COCCN(C(=O)COc1ccccc1)c1nnc(-c2cccnc2)s1`, the z-score is -0.132.
Turning to `COc1cccc(S(=O)(=O)NCc2ccc(C(=O)NCc3ccco3)cc2)c1`, the z-score is -0.517.
In the case of `O=C(COC(=O)c1cc(-c2cccs2)nn1-c1ccccc1)Nc1ccc(Cl)c([N+](=O)[O-])c1`, the z-score is 0.0111.
Regarding `Cc1ccc(C)c(N2CCN(C(=O)C3CCCN(S(=O)(=O)c4cnc[nH]4)C3)CC2)c1` (configuration not stated), the z-score is -0.0761.
As for `Nc1nnc(-c2ccc(F)cc2)s1`, the z-score was found to be 1.68.
With `CCC(C)n1cnc2c(c1=O)c1nc3ccccc3nc1n2Cc1ccc2c(c1)OCO2` (configuration not stated), the z-score is -0.195.
As for `O=C(c1cccc(-n2cnnn2)c1)N1CCOCC1`, the z-score is -0.145.
As for `COCC(=O)NC1CCN(C(=O)NCc2ccccc2)CC1`, the z-score is -0.215.
For the compound `COc1ccc(NC(=O)CN(C)S(=O)(=O)c2cccc3cccnc23)cc1`, the z-score is -0.226.
Take `C/C(Cl)=C/CSc1nnc2n(N)c(=O)c3ccccc3n12`: the z-score is -1.04.
For `Cc1ccc(OCc2ccc(C(=O)Nc3nc4ccccc4n3C)o2)c([N+](=O)[O-])c1`, the z-score is -0.373.
As to `O=C1C(=O)N(c2cccc(Cl)c2)C(c2ccccc2[N+](=O)[O-])/C1=C(\O)c1ccccc1` (configuration not stated), the z-score is -0.745.
As to `O=C(O)CCc1ncc(C(F)(F)F)cc1Cl`, the z-score was -0.0945.
For the compound `Cc1ccccc1S(=O)(=O)Cc1ccc(C(=O)N2CC(C)CC(C)C2)o1` (configuration not stated), the z-score was -0.255.
Consider `CCOC(=O)C1CCCN(C(=O)CNS(=O)(=O)c2ccc(Br)s2)C1` (configuration not stated), for which the z-score is 0.0342.
The same measure for `CC1=C(C(=O)Nc2ccccc2)C(c2ccco2)NC(=S)N1` (configuration not stated): -0.04; for `COC(=O)c1ccc(C(=O)OCc2nc3cc4ccccc4cc3[nH]2)cc1`: -0.13.
The result for `O=C(COc1ccc(S(=O)(=O)NC2CCCCC2)cc1)NC1CCCCC1` reads -0.031; that for `CCOc1ccc(S(=O)(=O)Nc2ccc(Cl)cn2)c(C)c1C`, -0.393.
As for `COc1ccc(-c2nc3ccccn3c2/N=C/c2ccc(OC)c(OC)c2)cc1O`, the z-score is -0.937.
Compound `COc1ccccc1NC(=O)Nc1ccc2c(c1)OCCO2` returned a z-score of 1.1.
With `COc1cc(NC(=S)NCc2ccco2)cc(OC)c1OC`, the z-score was -0.163.
With `CCn1nc(CC(=O)Nc2ccc(-n3cnnn3)c(C)c2)c2ccccc2c1=O`, the z-score was found to be 0.00631.
Regarding `CC(=O)Nc1ccccc1C(=O)C(=O)Nc1ccccc1`, the z-score was -0.164.
The result for `COc1cccc(N(CC(=O)NCc2cccnc2)S(C)(=O)=O)c1` reads active: 3.97.
For `Cc1sc2ncn(CC(=O)OC(C)C)c(=O)c2c1C`, the z-score was -0.0843.
For the compound `CCN1/C(=C/C(C)=O)Sc2ccc(OC)cc21`, the z-score was determined as 0.45.
With `COC(=O)c1cccc(NC(=O)c2ccco2)c1`, the z-score is -0.0291.
The result for `NNC(=O)c1ccc(COc2ccccc2)cc1` reads -0.142; that for `O=C(c1ccc(Cl)c(S(=O)(=O)N2CCOCC2)c1)N1CCN(Cc2ccccc2)CC1`, -0.079.
For the compound `Cc1nnc(SCC(=O)Nc2ccc(Br)cn2)[nH]c1=O`, the z-score worked out at 0.0159.
For `CN(C)S(=O)(=O)c1cccc(C(=O)Nc2cc(Cl)cc(Cl)c2)c1`, the z-score is -0.468.
Take `O=C(Nc1cnn(C23CC4CC(CC(C4)C2)C3)c1)c1cc(-c2ccccc2)on1`: the z-score came to 0.107.

(Values after PubChem BioAssay AID488969 (Vanderbilt High Throughput Screening Facility, 2010).)
